Measured values as given in PubChem BioAssay AID504333 (National Center for Advancing Translational Sciences (NCATS), 2011).
In all, about 360,000 compounds went through this assay and about 16,000 (4.4%) were called active. The shares of active, inactive and inconclusive entries below differ from those in the screen. Calls come from the whole dose curve; as a rule, active = well fitted inhibition curve with a large enough effect; inconclusive = small, poorly fitted or top-dose-only effect; inactive = no such curve, though single readings can be large or run the other way. A potency beside an inconclusive call is a rough fit, not a confirmed value.

These molecules were tested against Bromodomain adjacent to zinc finger domain protein 2B (Homo sapiens) (UniProt Q9UIF8) (assay: qHTS Assay for Inhibitors of BAZ2B). Conditions: AlphaScreen BAZ2B-H3K14Ac peptide displacement; series mostly up to 114 µM.
Sequence of UniProt Q9UIF8 (Q9UIF8 whole entry, looked up, the tested form may be a part): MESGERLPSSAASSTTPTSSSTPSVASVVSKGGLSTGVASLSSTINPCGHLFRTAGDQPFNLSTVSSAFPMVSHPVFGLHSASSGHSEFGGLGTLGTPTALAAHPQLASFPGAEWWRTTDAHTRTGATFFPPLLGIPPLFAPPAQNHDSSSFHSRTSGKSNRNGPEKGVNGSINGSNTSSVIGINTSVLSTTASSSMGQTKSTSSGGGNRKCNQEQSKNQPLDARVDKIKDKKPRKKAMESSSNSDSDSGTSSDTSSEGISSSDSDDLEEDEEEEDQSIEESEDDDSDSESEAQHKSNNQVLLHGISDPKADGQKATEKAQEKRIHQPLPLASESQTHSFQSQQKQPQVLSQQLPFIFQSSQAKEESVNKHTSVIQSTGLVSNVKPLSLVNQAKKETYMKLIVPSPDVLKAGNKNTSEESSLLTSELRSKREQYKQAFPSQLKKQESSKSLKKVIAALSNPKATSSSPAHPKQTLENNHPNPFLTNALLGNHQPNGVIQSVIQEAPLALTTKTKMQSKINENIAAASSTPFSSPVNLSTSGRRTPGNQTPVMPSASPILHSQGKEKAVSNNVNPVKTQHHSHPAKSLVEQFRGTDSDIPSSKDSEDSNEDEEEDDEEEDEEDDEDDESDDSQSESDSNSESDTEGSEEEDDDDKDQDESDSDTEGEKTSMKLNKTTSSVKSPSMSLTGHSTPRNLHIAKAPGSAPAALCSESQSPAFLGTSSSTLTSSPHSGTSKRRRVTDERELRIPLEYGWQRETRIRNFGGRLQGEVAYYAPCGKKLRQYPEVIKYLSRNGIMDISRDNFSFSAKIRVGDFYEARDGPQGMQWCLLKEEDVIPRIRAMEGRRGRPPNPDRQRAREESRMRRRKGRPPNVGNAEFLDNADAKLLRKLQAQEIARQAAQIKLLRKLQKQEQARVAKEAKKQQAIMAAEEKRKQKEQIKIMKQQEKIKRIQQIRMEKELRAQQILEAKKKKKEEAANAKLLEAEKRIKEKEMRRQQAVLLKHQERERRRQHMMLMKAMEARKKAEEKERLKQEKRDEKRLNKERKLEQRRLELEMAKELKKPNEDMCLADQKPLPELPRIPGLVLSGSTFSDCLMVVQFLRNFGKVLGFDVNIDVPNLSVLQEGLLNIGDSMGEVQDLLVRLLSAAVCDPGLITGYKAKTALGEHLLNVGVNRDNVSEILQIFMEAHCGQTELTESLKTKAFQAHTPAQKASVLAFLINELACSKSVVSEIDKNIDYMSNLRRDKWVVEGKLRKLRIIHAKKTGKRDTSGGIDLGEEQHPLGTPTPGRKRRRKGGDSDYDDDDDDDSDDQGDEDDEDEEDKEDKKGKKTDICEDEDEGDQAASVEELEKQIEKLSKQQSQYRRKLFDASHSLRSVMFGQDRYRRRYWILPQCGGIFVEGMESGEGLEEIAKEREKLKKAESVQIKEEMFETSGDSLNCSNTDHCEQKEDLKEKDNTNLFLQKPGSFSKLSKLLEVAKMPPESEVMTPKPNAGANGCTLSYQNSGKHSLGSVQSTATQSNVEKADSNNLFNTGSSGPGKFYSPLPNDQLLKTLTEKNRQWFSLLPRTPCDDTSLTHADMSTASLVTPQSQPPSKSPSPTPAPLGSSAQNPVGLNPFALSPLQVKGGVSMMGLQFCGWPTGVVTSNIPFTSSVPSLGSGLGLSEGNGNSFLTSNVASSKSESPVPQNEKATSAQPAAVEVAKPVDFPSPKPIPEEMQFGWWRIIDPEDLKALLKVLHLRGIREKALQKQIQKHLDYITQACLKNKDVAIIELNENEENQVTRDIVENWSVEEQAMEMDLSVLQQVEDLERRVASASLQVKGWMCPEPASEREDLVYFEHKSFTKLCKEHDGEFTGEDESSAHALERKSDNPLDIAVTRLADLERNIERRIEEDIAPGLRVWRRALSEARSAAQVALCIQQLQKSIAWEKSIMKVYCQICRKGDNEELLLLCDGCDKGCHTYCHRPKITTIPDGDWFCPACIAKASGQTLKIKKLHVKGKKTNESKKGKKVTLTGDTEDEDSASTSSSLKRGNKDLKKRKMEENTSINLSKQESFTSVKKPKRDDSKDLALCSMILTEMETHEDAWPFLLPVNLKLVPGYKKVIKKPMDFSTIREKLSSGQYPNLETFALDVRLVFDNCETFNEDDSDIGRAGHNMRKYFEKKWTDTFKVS
Summary of the method: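 Complex of BAZ2B and biotin-H3K14Ac (50 nM apiece) forms over 30 min at RT, then faces library compounds up to 110 uM for another 30 min; AlphaScreen beads added, 20 min dark incubation, luminescence read.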
Note: nearly all actives have a fitted effect of over 60% in size.
Potency is the fitted concentration of half-maximal effect; tags give direction and shape of the fitted curve.

Row | SMILES | Potency
1 | O=C(Nc1ccc2c(c1)OCO2)c1c[nH]c(=O)n(-c2ccc(F)cc2)c1=O | active: 35.5 µM
2 | Cc1cc(C)c(NC(=O)CN(c2ccccc2)S(=O)(=O)N(C)C)c(C)c1 | inconclusive: 89.1 µM [inhibitor, single point]
3 | CCn1c(-c2cc3c(C(F)(F)F)nn(C)c3s2)n[nH]c1=S | inactive
4 | CCC(=O)NC(/C=C/c1ccccc1)c1cc([N+](=O)[O-])c2cccnc2c1O (stereo not drawn) | active: 4.47 µM
5 | Cc1ccc(NC(=O)c2ccccc2OCC(=O)Nc2cccc(Cl)c2C)nc1 | inconclusive: 89.1 µM [inhibitor, single point]
6 | CN(C)C(CNC(=O)c1ccc2c(c1)S(=O)(=O)c1ccccc1C2=O)c1ccco1 (stereo not drawn) | inconclusive: 79.4 µM [inhibitor, single point]
7 | COc1ccc(C2CN=NC2C(=O)c2ccccc2)cc1 (stereo not drawn) | inconclusive: 89.1 µM [inhibitor, single point]
8 | COCCN=C1Sc2nc3cc4c(cc3cc2CN1CC1CCCO1)OCO4 (stereo not drawn) | inactive
9 | O=C(CNCC1CCCO1)Nc1ccc(N2CCCCCC2)cc1 (stereo not drawn) | active: 35.5 µM
10 | Cc1cc(C)cc(-n2c(SCC(=O)Nc3ccccc3F)nc3c(oc4ccccc43)c2=O)c1 | inconclusive: 79.4 µM [inhibitor, single point]
11 | O=[N+]([O-])c1ccccc1S(=O)(=O)NCCSCc1ccco1 | inconclusive: 79.4 µM [inhibitor, single point]
12 | Cc1nc(Cl)sc1C(=O)O | inconclusive: 79.4 µM [inhibitor, single point]
13 | CC(OC(=O)C1=COCCO1)C(=O)Nc1ncc(Cl)cc1Cl (stereo not drawn) | inactive
14 | COc1cccc(C(=O)NN/C(C)=C/C(=O)C(F)(F)C(F)(F)C(F)(F)F)c1 | inactive
15 | Cc1ccc(S(=O)(=O)N2CCN(C(=O)Cc3ccccc3)CC2)cc1C | inactive
16 | CCOC(=O)C1CCCN(C2CC(=O)N(c3cccc(C)c3)C2=O)C1 (stereo not drawn) | inconclusive: 89.1 µM [inhibitor, single point]
17 | O=c1n(Cc2ccc([N+](=O)[O-])cc2)c2ccccc2c2nc(-c3ccccc3)nn12 | inactive
18 | O=C1CCC(=O)N(O)CCCCCNC(=O)CCC(=O)N(O)CCCCNC(=O)CCC(=O)N(O)CCCCCN1 | inconclusive: 56.2 µM [inhibitor, partial curve]
19 | COc1ccccc1S(=O)(=O)Cc1ccc(C(=O)NCCCN2CCN(c3ccc(F)cc3)CC2)o1 | inconclusive: 39.8 µM [inhibitor, full curve]
20 | O=S(=O)([N-]c1nc2ccccc2nc1-[n+]1ccccc1)c1ccccc1 | inactive
21 | CC1(C)CN(c2cccc(Br)c2)C1=O | inactive
22 | CCCn1nnnc1NC(=O)COc1ccc(Cl)c(C)c1 | inconclusive: 89.1 µM [inhibitor, single point]
23 | CCOC(=O)C1=C(CNCc2ccc(F)cc2)NC(=O)NC1c1cccc([N+](=O)[O-])c1 (stereo not drawn) | inconclusive: 89.1 µM [inhibitor, partial curve]
24 | Cc1nc2ccccc2c2nc(N)nn12 | inactive

Row | SMILES | Potency
25 | CC(=O)Nc1cccc(NC(=O)CSc2nc(C)c(C)c(C)c2C#N)c1 | inactive
26 | CCS(=O)(=O)c1c(S(=O)(=O)CC)c2cc(C(C)(C)C)ccn2c1C(=O)c1ccc(F)cc1 | inactive
27 | CCN(CC)c1ccc(NC(=S)Nc2ccc(F)cc2)cc1 | active: 22.4 µM
28 | Cc1cc(C)cc(N2CC(C)(C)C2=O)c1 | inactive
29 | CCOc1ccccc1NC(=O)Cn1c(=O)n(-c2ccc(C)c(C)c2)c(=O)c2c(C)c(C(=O)N(C)C)sc21 | inactive
30 | Cc1cc(C=C2C(=O)c3ccccc3C2=O)c(C)n1-c1ccccc1 | inactive
31 | CCOc1ccc(-c2csc(NC(=O)CSC3=NC(=O)CN3C(C)=O)n2)c2ccccc12 | inconclusive: 44.7 µM [inhibitor, partial curve]
32 | Cc1ccc2c(c1)c1c3n2CCN(CCC(=O)O)C3CCC1 (stereo not drawn) | inconclusive: 89.1 µM [inhibitor, single point]
33 | O=C(Cc1c[nH]c2ccccc12)Nc1ccc(N2CCOCC2)cc1 | inconclusive: 79.4 µM [inhibitor, single point]
34 | Clc1ccc(Nc2ncnc3ccc(Br)cc23)cc1 | inactive
35 | CC1CCc2[nH]c3ccc(C(=O)N(C)CC(=O)Nc4cccc(F)c4)cc3c2C1 (stereo not drawn) | inconclusive: 50.1 µM [inhibitor, partial curve]
36 | O=C(CSc1n[nH]c(-c2ccccc2)n1)NC(=O)NCc1ccco1 | inconclusive: 50.1 µM [inhibitor, partial curve]
37 | COc1ccccc1/C=C/C=N/n1c(-c2ccc(Cl)cc2)n[nH]c1=S | inconclusive: 79.4 µM [inhibitor, single point]
38 | Cc1ccc(OCC(=O)Nc2nnc(S(=O)(=O)N3CCC(C)CC3)s2)cc1 | inconclusive: 56.2 µM [inhibitor, partial curve, poor fit]
39 | COCCN=C1NN=C(c2ccc(C)c([N+](=O)[O-])c2)CS1 | inactive
40 | Cc1ccc(-n2c(C)cc(/C=C(\C#N)C(=O)NCC3CCCO3)c2C)cc1 (stereo not drawn) | inconclusive: 89.1 µM [inhibitor, single point]
41 | N=C1C(c2nc3ccccc3[nH]2)=C(O)CN1c1ccccc1 | inconclusive: 3.98 µM [inhibitor, single point]
42 | COc1cccc(N2CCN(S(=O)(=O)c3ccc(-c4cc(C(F)(F)F)on4)s3)CC2)c1 | inactive
43 | Cc1cc2nc(-c3ccc[nH]c3=O)n(Cc3ccc(F)cc3)c2cc1C | inactive
44 | Cc1ccc2nc(NC(=O)C3CCCN(S(=O)(=O)c4cccc5nonc45)C3)sc2c1 (stereo not drawn) | inconclusive: 89.1 µM [inhibitor, single point]
45 | Cc1ccc(C)c(-n2c(-c3ccc4c(c3)OCO4)n[nH]c2=S)c1 | inconclusive: 79.4 µM [inhibitor, partial curve]
46 | CC(C)n1c(SCC(=O)NC2CC2)nnc1-c1ccco1 | inactive
47 | CN1c2cccc3cccc(c23)N(C)C1c1cccs1 | inconclusive: 50.1 µM [inhibitor, partial curve]
48 | Cc1cc(C(=O)OCC(=O)N2CC(=O)Nc3ccccc32)c(C)n1-c1ccccc1 | active: 50.1 µM
